Measurements reported in a collection of fitness landscapes (doi:10.1016/j.celrep.2020.107928).
In all, about 81,000 sequences were measured (“one-hybrid fitness for binding NBS DNA”: median about -0.1, highest 2% from about 0.36 on). The list shows a part of the results.

B1: Caulobacter ParB omega fusion; a variant is named by its letters at X, in order, B8GW30 (parent)
chain: MESVVVGEPGMSEGRRGLGRGLSALLGEVDAAPAQAPGEQLGGSREAPIEILQRNPDQPRRTFREEDLEDLSNSIREKGVLQPILVRPSPDTAGEYQIVAGERAWRAAQRAGLKTVPIMVRELDDLAVLEIGIIENVQRADLNVLEEALSYKVLMEKFERTQENIAQTIGKSXSHVANXMRLLXLPDEVQSYLVSGELTAXHARAIAAAADPVALAKQIIEGGLSVRETEALARKAPNLSAGKSKGGRPPRVKDTDTQALESDLSSVLGLDVSIDHRGSTGTLTITYATLEQLDDLCNRLTRGI

Variants of: B1
Assay: one-hybrid fitness for binding NBS DNA (the Noc-binding site; scaled: cognate 1, non-cognate 0); higher = stronger binding
Details: with NBS DNA site
Procedure, shortened: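 Selection: bacterial one-hybrid in E. coli USO, HIS3 reporter with the site 19 bp from the promoter, 48 hours at 37°C on M9-minus-histidine plus 0.1 mM IPTG and 5 mM 3-AT. Libraries were Caulobacter ParB with four randomised specificity codons, sequenced on Illumina before and after selection. Fitness is the rescaled log change in variant-to-wild-type read ratio, anchored to the cognate and non-cognate sites.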

Variant | one-hybrid fitness for binding NBS DNA
EERL | ≤ 0.2
ILPF | ≤ 0.2
DSHE | ≤ 0.2
PFLG | ≤ 0.2
NCVS | ≤ 0.2
PNSV | ≤ 0.2
PETY | ≤ 0.2
TPHS | ≤ 0.2
YWRT | ≤ 0.2
VIKV | ≤ 0.2
PKGL | ≤ 0.2
DTRC | ≤ 0.2
MDNA | ≤ 0.2
HTDN | ≤ 0.2
QTPK | ≤ 0.2
WTQV | ≤ 0.2
ATYR | ≤ 0.2
HANG | ≤ 0.2
GVLA | ≤ 0.2
KLTW | ≤ 0.2
LGLD | ≤ 0.2
QCKD | 0.337
SMMG | ≤ 0.2
TTGA | ≤ 0.2

Variant | one-hybrid fitness for binding NBS DNA
QVHM | ≤ 0.2
FNNM | ≤ 0.2
EVLR | ≤ 0.2
YRNA | ≤ 0.2
DYFR | ≤ 0.2
MQAS | ≤ 0.2
QFSD | ≤ 0.2
AVLE | ≤ 0.2
EYIL | ≤ 0.2
CTTT | ≤ 0.2
APMR | ≤ 0.2
PKDS | ≤ 0.2
TLLV | ≤ 0.2
AKQM | ≤ 0.2
QYEK | ≤ 0.2
YMQG | ≤ 0.2
LCEF | ≤ 0.2
PTRH | ≤ 0.2
DISG | ≤ 0.2
RCSF | ≤ 0.2
TFHF | ≤ 0.2
YAWG | ≤ 0.2
HPYR | ≤ 0.2
QYGR | 0.553

Variant | one-hybrid fitness for binding NBS DNA
VGRT | ≤ 0.2
QYKW | 0.271
NQYR | ≤ 0.2
IEKS | ≤ 0.2
RQHL | ≤ 0.2
CSIT | ≤ 0.2
LCGS | ≤ 0.2
KLDI | ≤ 0.2
SARV | ≤ 0.2
RPFD | ≤ 0.2
LPFS | ≤ 0.2
HYTQ | ≤ 0.2
VILE | ≤ 0.2
TAWW | ≤ 0.2
SNIS | ≤ 0.2
QARH | 0.529
TMNP | ≤ 0.2
PAAT | ≤ 0.2
QNFR | ≤ 0.2
GDTH | ≤ 0.2
YANR | ≤ 0.2
SNYQ | ≤ 0.2
YNAC | ≤ 0.2
VWNE | ≤ 0.2

Variant | one-hybrid fitness for binding NBS DNA
ASAQ | ≤ 0.2
HPSP | ≤ 0.2
SVYI | ≤ 0.2
IIPP | ≤ 0.2
GWIR | ≤ 0.2
EVPF | ≤ 0.2
ETRS | ≤ 0.2
INMM | ≤ 0.2
YENF | ≤ 0.2
WFSR | ≤ 0.2
HLAN | ≤ 0.2
TQDS | ≤ 0.2
LFYE | ≤ 0.2
DQRH | ≤ 0.2
FIMF | ≤ 0.2
SHYV | ≤ 0.2
RPLG | ≤ 0.2
QFEG | ≤ 0.2
SMAW | ≤ 0.2
TIDE | ≤ 0.2
TATC | ≤ 0.2
SADV | ≤ 0.2
CLKG | ≤ 0.2
KIKM | ≤ 0.2

Variant | one-hybrid fitness for binding NBS DNA
SVCR | ≤ 0.2
AVWI | ≤ 0.2
ITAC | ≤ 0.2
NRMM | ≤ 0.2
LRHM | ≤ 0.2
CWST | ≤ 0.2
RPAY | ≤ 0.2
KLQM | ≤ 0.2
ALKH | ≤ 0.2
RANI | ≤ 0.2
QANE | ≤ 0.2
QRAN | 0.39
QRKT | 0.848
KSPF | ≤ 0.2
VGCS | ≤ 0.2
CTGD | ≤ 0.2
KCYW | ≤ 0.2
SYSW | ≤ 0.2
IPNG | ≤ 0.2
QPSP | ≤ 0.2
QAFS | 0.218
TDAT | ≤ 0.2
NPHT | ≤ 0.2
YSCC | ≤ 0.2

Variant | one-hybrid fitness for binding NBS DNA
TYKN | ≤ 0.2
VVPF | ≤ 0.2
LSRD | ≤ 0.2
CLKT | ≤ 0.2
TRGI | ≤ 0.2
FTMC | ≤ 0.2
ILKM | ≤ 0.2
MYTD | ≤ 0.2
SLDC | ≤ 0.2
ISAE | ≤ 0.2
DARV | ≤ 0.2
KHEE | ≤ 0.2
ETLM | ≤ 0.2
VWKM | ≤ 0.2
CCTW | ≤ 0.2
NARR | ≤ 0.2
VHCG | ≤ 0.2
QCRR | 1.13
RRSD | ≤ 0.2
PHHP | ≤ 0.2
PKCQ | ≤ 0.2
NSIL | ≤ 0.2
SICS | ≤ 0.2
VSPL | ≤ 0.2

Variant | one-hybrid fitness for binding NBS DNA
YSHG | ≤ 0.2
DCRC | ≤ 0.2
VLRR | ≤ 0.2
QVKS | 0.49
EPVK | ≤ 0.2
GAKK | ≤ 0.2
HSGT | ≤ 0.2
EAQS | ≤ 0.2
PRAV | ≤ 0.2
CRAG | ≤ 0.2
LSAK | ≤ 0.2
FLSC | ≤ 0.2
CSPS | ≤ 0.2
IISW | ≤ 0.2
LPAE | ≤ 0.2
GTER | ≤ 0.2
ANTD | ≤ 0.2
ILPA | ≤ 0.2
ELSK | ≤ 0.2
KIPI | ≤ 0.2
AIME | ≤ 0.2
DHPC | ≤ 0.2
RNKV | ≤ 0.2
PILW | ≤ 0.2

Variant | one-hybrid fitness for binding NBS DNA
PQSY | ≤ 0.2
CSPI | ≤ 0.2
PASD | ≤ 0.2
WNAG | ≤ 0.2
CQKT | ≤ 0.2
TCYD | ≤ 0.2
NDDC | ≤ 0.2
CHKL | ≤ 0.2
PVTQ | ≤ 0.2
DWPT | ≤ 0.2
KLHT | ≤ 0.2
GRGC | ≤ 0.2
WMRT | ≤ 0.2
YWAS | ≤ 0.2
AIFG | ≤ 0.2
ETTV | ≤ 0.2
LYWL | ≤ 0.2
NNYY | ≤ 0.2
HSVR | ≤ 0.2
TSQY | ≤ 0.2
MENG | ≤ 0.2
DIER | ≤ 0.2
NLQY | ≤ 0.2
DAAD | ≤ 0.2

Variant | one-hybrid fitness for binding NBS DNA
PGGS | ≤ 0.2
RLQL | ≤ 0.2
QKVH | ≤ 0.2
WYDC | ≤ 0.2
TERI | ≤ 0.2
QWTL | ≤ 0.2
WSTG | ≤ 0.2
HHWR | ≤ 0.2
HMHC | ≤ 0.2
AYMV | ≤ 0.2
KNKC | ≤ 0.2
EDQL | ≤ 0.2
ENAF | ≤ 0.2
CGKG | ≤ 0.2
DWPR | ≤ 0.2
NAVE | ≤ 0.2
HAYS | ≤ 0.2
RTWL | ≤ 0.2
RRRC | 0.39
RNIG | ≤ 0.2
TTPA | ≤ 0.2
LGRF | ≤ 0.2
QSKI | 0.314
QVYW | ≤ 0.2

Variant | one-hybrid fitness for binding NBS DNA
NQKR | ≤ 0.2
AAAV | ≤ 0.2
PCYR | ≤ 0.2
EMYR | ≤ 0.2
FPWS | ≤ 0.2
ALVV | ≤ 0.2
RERQ | ≤ 0.2
SNLW | ≤ 0.2
APQT | ≤ 0.2
QVDS | ≤ 0.2
QGAT | ≤ 0.2
YRPT | ≤ 0.2
EDQC | ≤ 0.2
PWRP | ≤ 0.2
MCFS | ≤ 0.2
LFHT | ≤ 0.2
DELH | ≤ 0.2
DPSL | ≤ 0.2
NLFK | ≤ 0.2
TPKR | 0.351
EIES | ≤ 0.2
MPES | ≤ 0.2
VHKT | ≤ 0.2
TCRW | ≤ 0.2

Variant | one-hybrid fitness for binding NBS DNA
WFIS | ≤ 0.2
HLDN | ≤ 0.2
NHSN | ≤ 0.2
EHMR | ≤ 0.2
CPSG | ≤ 0.2
GPNW | ≤ 0.2
SQNE | ≤ 0.2
ALLW | ≤ 0.2
FCIC | ≤ 0.2
KFPT | ≤ 0.2
QIIA | ≤ 0.2
KRGY | ≤ 0.2
NKKC | ≤ 0.2
ASIN | ≤ 0.2
AIDS | ≤ 0.2
WFHG | ≤ 0.2
AVFN | ≤ 0.2
TIPC | ≤ 0.2
QQNW | ≤ 0.2
GPNH | ≤ 0.2
VVHL | ≤ 0.2
VAGL | ≤ 0.2
PPVT | ≤ 0.2
RCFH | ≤ 0.2

Variant | one-hybrid fitness for binding NBS DNA
ENTK | ≤ 0.2
QPSV | ≤ 0.2
MLMY | ≤ 0.2
NYKT | ≤ 0.2
GQHI | ≤ 0.2
RPDT | ≤ 0.2
PHQI | ≤ 0.2
LASL | ≤ 0.2
RMQY | ≤ 0.2
DPCS | ≤ 0.2
KWMS | ≤ 0.2
AYMK | ≤ 0.2
RSFH | ≤ 0.2
MEIG | ≤ 0.2
EIYF | ≤ 0.2
DLCT | ≤ 0.2
TSEW | ≤ 0.2
WGET | ≤ 0.2
QNFL | ≤ 0.2
MSNC | ≤ 0.2
PMTV | ≤ 0.2
RAAP | ≤ 0.2
QTIP | ≤ 0.2
SRNM | ≤ 0.2

Variant | one-hybrid fitness for binding NBS DNA
GYHT | ≤ 0.2
NITI | ≤ 0.2
VNGS | ≤ 0.2
RNAE | ≤ 0.2
ARDE | ≤ 0.2
SRRT | 0.255
ENND | ≤ 0.2
DNQM | ≤ 0.2
PGRA | ≤ 0.2
RNIH | ≤ 0.2
VPHG | ≤ 0.2
GNYY | ≤ 0.2
WNSI | ≤ 0.2
LQIR | ≤ 0.2
MWYS | ≤ 0.2
AETN | ≤ 0.2
GTKC | ≤ 0.2
VSPY | ≤ 0.2
